Hit rate of the full screen: of about 48,000 compounds, about 1,200 (2.5%) were called active. Another 2% or so got no clear call; they are omitted.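 Rule for the calls: active = activation of at least 60% and not above a set upper limit (about 1 call in 100 departs from these limits); inconclusive = activation of 40% to 60%, or above that upper limit; inactive = activation under 40%.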 The list shows a part of the results.
target: Probable G-protein coupled receptor 32 (Homo sapiens) (UniProt O75388); assay: qHTS for Agonists of Human Resolvin D1 Receptor DRV1; conditions: CHO-K1 GPR32 beta-arrestin PathHunter luminescence, 90 min; at 76.9 µM; hits give high values; zero percent set by DMSO-only wells; note: 0% is about no effect
Sequence of UniProt O75388 (O75388 whole entry, looked up): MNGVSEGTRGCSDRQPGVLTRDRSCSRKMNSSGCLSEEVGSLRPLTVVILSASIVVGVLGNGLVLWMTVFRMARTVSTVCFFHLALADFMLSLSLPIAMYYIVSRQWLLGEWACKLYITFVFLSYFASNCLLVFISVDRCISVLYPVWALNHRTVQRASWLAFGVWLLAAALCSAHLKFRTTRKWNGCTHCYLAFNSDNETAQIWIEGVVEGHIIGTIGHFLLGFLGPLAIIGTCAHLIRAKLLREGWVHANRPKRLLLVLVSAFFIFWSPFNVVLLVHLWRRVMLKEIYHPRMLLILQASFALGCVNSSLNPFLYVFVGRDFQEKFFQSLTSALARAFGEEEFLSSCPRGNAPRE
Summary of the method: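 Readings come from a cell-based beta-arrestin complementation format: CHO-K1 GPR32 stable cells (2,500/well) treated 90 min with compounds, then beta-Gal substrate added for 1 h before chemiluminescence imaging.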

activation, inactive:
COc1ccc(CNC(=O)Cc2csc3nc(-c4ccc(F)cc4)cn23)cc1 2.84%
Cc1ccccc1C(=O)NCCc1sc(-c2ccc(Cl)cc2)nc1C 2.78%
Cc1ccccc1NC(=O)CCN1C(=O)c2ccccc2Sc2ncccc21 -8.12%
COc1cccc(NC(=O)CCc2c(C)nc3ncnn3c2C)c1 -1.01%
COc1ccc(N(Cc2cccs2)C(=O)Nc2cccc(Cl)c2)cc1 -34.6%
CCOC(=O)C1CCCN(S(=O)(=O)c2ccc3c(c2)oc(=O)n3C)C1 (stereo not drawn) -25.8%
COc1ccc(C2CC(=O)N(CC(=O)Nc3ccc(C)c(Cl)c3)c3ccccc3S2)cc1OC (stereo not drawn) -23.8%
CCOc1ccc(NC(=O)C(=O)NCC(c2cccnc2)N2CCc3ccccc32)cc1 (stereo not drawn) 22.4%
COc1ccc(-c2nc(SCC(=O)NC3CCCC3)c(-c3ccc(C)cc3)[nH]2)cc1OC -14.7%
COc1cc(OC)c(NC(=O)c2cn(C3CCCC3)c(=O)c3c2c2ccccc2n3C)cc1Cl 4.61%
Cc1cc(C)c(S(=O)(=O)Nc2ccc3oc4c(c3c2)C(=O)CC(C)(C)C4)cc1C -5.77%
COc1ccc(-c2cnc(C)o2)cc1S(=O)(=O)Nc1ccc(F)cc1F -4.73%
CN1CCN(C(=O)Cn2ncc3c4ccccc4n(Cc4ccc(F)cc4)c3c2=O)CC1 -12.8%
O=C(c1ccc(Br)cc1)N(Cc1cccs1)c1ccc(F)cc1 29.9%
CN(C)CCCNC(=O)C(=O)NCC(c1ccc2c(c1)OCO2)N1CCOCC1 (stereo not drawn) -6.76%
Cc1nc2nc(SCC(=O)Nc3ccccc3Cl)nn2c(C)c1Cc1ccccc1 -23.8%
COc1cc2c(cc1OC)C(COc1ccc(F)cc1)N(C(=O)c1cccc(F)c1)CC2 (stereo not drawn) -3.17%
CCOCCn1ccc2c(OCC(=O)Nc3cccc([N+](=O)[O-])c3)cccc2c1=O 2.78%
CCCOc1ccc(C2C(=O)N(C3CCCCCC3)CC(=O)N2CCC2=CCCCC2)cc1OC (stereo not drawn) -9.81%
Cc1cccn2c(=O)c(/C=C(\C#N)c3nc4ccccc4s3)c(Oc3ccc(F)cc3)nc12 -1.44%
Cc1cc(N(CCO)Cc2ccccc2)n2nc(-c3ccc(C(C)(C)C)cc3)nc2n1 3.24%
COc1cccc(C(=O)Nc2ccccc2OCc2cc(=O)n3ccccc3n2)c1 -10.5%
Cc1noc(/C=C/c2cccs2)c1S(=O)(=O)N1CCC(C(=O)NCc2ccc(Cl)cc2)CC1 -16.8%
COc1ccccc1CN1CCNC(=O)C1=O 7.98%
COc1ccc(N(Cc2nnc3n2CCCCC3)C(=O)Nc2cccc(C)c2)cc1Cl 4.43%
CCn1c(=N)n(CC(O)COc2ccccc2)c2ccccc21 (stereo not drawn) 8.75%
COc1ccccc1NC(=O)Cn1c(=O)n(-c2cccc(C)c2)c(=O)c2c1c1cc(C)ccc1n2C -14.3%
COc1ccc(NC(=O)C(CC(C)C)NC(=O)C2CCCCC2)cc1 (stereo not drawn) -7.72%
CCOc1ccc(CN2CCc3nc(N4CCN(c5ccccn5)CC4)ncc3C2)cc1OC -26.9%
O=C(Cn1ncc2c3ccccc3n(Cc3ccccc3)c2c1=O)NC1CCCCCC1 -2.44%
Cc1ccc(NC(=O)Cn2c(-c3nonc3N)nc3ccccc32)c(Br)c1 -15.8%
CCCCOc1ccc(C2C(=O)N(C3CCCCC3)CC(=O)N2CCCC)cc1 (stereo not drawn) -2.95%
Cc1cc(C)cc(C(=O)N2CC(=O)Nc3ccc(Br)cc3C2c2ccccc2)c1 (stereo not drawn) -3.6%
CCCCN(CC)CCCNC(=O)c1ccc2c(c1)NC(=O)CN2C -16.3%
Cc1ccc(-n2ncc(C(=O)NCCCN3CCc4ccccc4C3)c2C2CCN(C(=O)OC(C)(C)C)CC2)c(C)c1 -31.9%
CCOC(=O)c1noc2ncn(CC(=O)Nc3ccccc3OC)c(=O)c12 -4%
COc1cccc(CNC(=O)CCc2c(C)c3ccc(O)c(C)c3oc2=O)c1 7.12%
Cc1ccc(OCCOCCn2c(-c3ccc(Cl)cc3)nc3ccccc3c2=O)cc1 -3.48%
COc1ccc2c(c1)CCc1c(C(=O)Nc3ccc(C#N)cc3)noc1-2 27.9%
COC(=O)c1c(C)[nH]c(C)c1C(=O)c1ccccc1Cc1ccccc1 3.34%
COc1cccc(CNC(=O)Cn2nc(N3CCN(c4ccccc4OC)CC3)ccc2=O)c1 7.68%
COc1ccc(-n2c(SCc3ccccc3)nc3c([nH]c4ccccc43)c2=O)cc1 -10.2%
Cc1c(Cl)cccc1NC(=O)C(C)n1c(=O)cc(C)c2c(C)nn(-c3ccccc3)c21 (stereo not drawn) -10.6%
COc1ccc(C)cc1NC(=O)CN1C(=O)COc2ccc(S(=O)(=O)N3CCC(C)CC3)cc21 -22.5%
CCOc1ccc(-n2c(=O)c3c(C)c(C)sc3n(Cc3ccccc3C)c2=O)cc1 0.0294%
Cc1cn2c(=O)cc(COc3ccc(NC(=O)COc4ccccc4)cc3)nc2s1 2.4%
COc1cc(NC(=O)CN(c2cc(C)cc(C)c2)S(=O)(=O)c2c(C)[nH]c(=O)[nH]c2=O)cc(OC)c1 11.5%
C#CC(C)(CC)NC(=O)Cn1nnc(-c2ccc(OCc3c(F)cccc3Cl)cc2)n1 (stereo not drawn) -5.59%
O=C(CSc1ncc2c(n1)-c1ccccc1N(Cc1ccc(F)cc1)S2(=O)=O)NCCc1ccccc1 -9.31%
Cc1cc(C)cc(C(=O)n2nc(C)c(S(=O)(=O)N3CCOCC3)c2C)c1 3.79%
Cc1ccc(-n2c(=O)c3ccc(C(=O)NCc4ccccc4Cl)cc3n(CC(=O)Nc3ccc(C)cc3C)c2=O)cc1 -5.81%
CCOC(=O)c1c(NC(=O)c2ccc(F)cc2)sc2c1CCC(CC)C2 (stereo not drawn) -16.1%
CCOC(=O)c1cccc(NC(=O)[C@H](CSCc2ccccc2)N2Cc3ccccc3C2=O)c1 -6.78%
